Data taken from the supplement of paper PMC7826260.
The other results are listed elsewhere or left out. Cleavage of a single-stranded DNA pool by Rep nickase domains was read by sequencing at 3 µM enzyme and 37 °C for 1 h; the strands have 90 letters, of which the middle is given. The score is log2 (uncut reads / reads without enzyme); more negative means more cut, near 0 not cut, and no call is made. Because reads are shares of a total, they shift together; values above 0 arise when much of the pool is cut.

Columns and labels:
Assay in all cases: uncleaved DNA left, log2 of reads against the no-enzyme library (log2 ratio); higher = less cleavage (more negative = more Rep cleavage of the k-mer); sequences stand for … in CTCGTCCG…ACCGGAGA
[1] = test system: T1, Rep nickase domain of Muscovy duck circovirus
T1 sequence (protein, residues 1-111, tag omitted): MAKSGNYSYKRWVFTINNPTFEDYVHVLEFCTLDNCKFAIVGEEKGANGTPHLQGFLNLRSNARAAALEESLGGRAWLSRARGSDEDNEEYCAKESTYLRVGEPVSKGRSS
Description: (§1)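 A pool of 90-nt single-stranded DNAs with seven random bases just before the constant AC of the nick site (name = the seven bases) was cut by 3 µM recombinant His6-SUMO-tagged Rep nickase domain (300 nM DNA, 50 mM HEPES pH 8.0, 50 mM NaCl, 1 mM MnCl2, 1 h, 37 °C, three replicates). Uncut DNA was amplified and sequenced.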

[2] = test system: T2, Rep nickase domain of banana bunchy top virus
T2 sequence (protein, residues 1-94, tag omitted): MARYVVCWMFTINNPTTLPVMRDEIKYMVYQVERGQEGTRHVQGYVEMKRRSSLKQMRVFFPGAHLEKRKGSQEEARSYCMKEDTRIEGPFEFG
Description: as §1

[3] = test system: T3, Rep nickase domain of cabbage leaf curl virus
T3 sequence (protein, residues 1-116, tag omitted): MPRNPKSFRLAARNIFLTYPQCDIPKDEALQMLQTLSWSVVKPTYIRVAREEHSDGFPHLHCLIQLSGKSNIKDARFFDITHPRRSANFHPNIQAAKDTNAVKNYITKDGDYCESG
Description: as §1

[4] = test system: T4, Rep nickase domain of chickpea chlorotic dwarf virus
T4 sequence (protein, residues 1-124, tag omitted): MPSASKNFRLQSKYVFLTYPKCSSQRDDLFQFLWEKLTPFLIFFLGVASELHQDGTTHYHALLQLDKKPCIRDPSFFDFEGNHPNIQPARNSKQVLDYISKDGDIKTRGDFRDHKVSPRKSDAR
Description: as §1

[5] = test system: T5, Rep nickase domain of faba bean necrotic yellows virus
T5 sequence (protein, residues 1-98, tag omitted): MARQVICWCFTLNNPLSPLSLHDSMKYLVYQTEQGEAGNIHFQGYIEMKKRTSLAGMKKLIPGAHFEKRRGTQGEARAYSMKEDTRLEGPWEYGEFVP
Description: as §1

[6] = test system: T6, Rep nickase domain of maize striate mosaic virus
T6 sequence (protein, residues 1-117, tag omitted): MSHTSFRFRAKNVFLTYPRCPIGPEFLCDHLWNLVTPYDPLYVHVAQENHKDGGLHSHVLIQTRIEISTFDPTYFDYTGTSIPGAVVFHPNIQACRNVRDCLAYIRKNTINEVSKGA
Description: as §1

[7] = test system: T7, Rep nickase domain of porcine circovirus 2
T7 sequence (protein, residues 2-116, tag omitted): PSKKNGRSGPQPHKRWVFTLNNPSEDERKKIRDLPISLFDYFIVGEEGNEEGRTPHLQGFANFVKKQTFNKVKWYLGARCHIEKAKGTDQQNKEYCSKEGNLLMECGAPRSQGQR
Description: as §1

[8] = test system: T8, Rep nickase domain of tomato golden mosaic virus
T8 sequence (protein, residues 1-124, tag omitted): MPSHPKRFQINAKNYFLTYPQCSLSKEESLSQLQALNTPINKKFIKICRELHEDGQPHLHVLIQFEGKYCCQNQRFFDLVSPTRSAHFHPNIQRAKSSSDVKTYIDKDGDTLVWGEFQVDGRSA
Description: as §1

[9] = test system: T9, Rep nickase domain of tomato yellow leaf curl virus
T9 sequence (protein, residues 1-136, tag omitted): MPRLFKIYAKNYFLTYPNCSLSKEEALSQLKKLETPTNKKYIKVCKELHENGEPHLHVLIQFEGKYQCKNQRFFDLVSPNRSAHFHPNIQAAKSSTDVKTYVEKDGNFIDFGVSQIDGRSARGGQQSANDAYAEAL
Description: as §1

[10] = test system: T10, Rep nickase domain of wheat dwarf virus
T10 sequence (protein, residues 1-137, tag omitted): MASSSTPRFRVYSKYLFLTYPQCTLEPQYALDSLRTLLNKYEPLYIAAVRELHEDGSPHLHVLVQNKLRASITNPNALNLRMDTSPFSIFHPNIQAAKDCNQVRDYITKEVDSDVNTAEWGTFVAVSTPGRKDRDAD
Description: as §1

Row | Sequence | uncleaved DNA left (log2) [1] | uncleaved DNA left (log2) [2] | uncleaved DNA left (log2) [3] | uncleaved DNA left (log2) [4] | uncleaved DNA left (log2) [5] | uncleaved DNA left (log2) [6] | uncleaved DNA left (log2) [7] | uncleaved DNA left (log2) [8] | uncleaved DNA left (log2) [9] | uncleaved DNA left (log2) [10]
1 | GACACGA | 0.0859 | 0.0821 | -0.162 | -0.143 | -0.0014 | -0.541 | 0.061 | -0.112 | -0.0382 | 0.00757
2 | TATCCAC | -0.127 | -0.0482 | 0.0495 | -0.296 | -0.0758 | -0.374 | -0.087 | -0.124 | -0.0323 | -0.0382
3 | CCAATGC | -0.0464 | 0.16 | -0.584 | -0.276 | 0.0919 | -1.25 | 0.208 | 0.0711 | 0.218 | 0.0443
4 | CATTAAA | 0.0089 | -0.176 | -0.0817 | -0.679 | 0.0225 | -0.966 | -0.0867 | 0.132 | -0.037 | 0.0658
5 | GCGGTCC | -0.0904 | -0.102 | 0.355 | 0.833 | -0.133 | 1.27 | -0.111 | -0.0368 | -0.00109 | -0.0161
6 | TGTTGCA | -0.156 | -0.16 | -0.73 | -0.897 | -0.0919 | -1.2 | -0.000763 | -0.161 | -0.0526 | -0.224
7 | TAAATAG | 0.0223 | -0.0154 | -1.17 | -1.77 | 0.0446 | -1.39 | 0.173 | 0.0522 | -0.0507 | -0.0889
8 | AATCCCA | -0.079 | 0.0422 | -0.102 | -1.96 | -0.0791 | -0.285 | -1.65 | -0.15 | -0.0175 | -0.0283
9 | GAAAAAA | 0.00141 | 0.0393 | 0.223 | 0.308 | 0.0234 | 0.416 | 0.166 | 0.0688 | 0.0736 | 0.0585
10 | TCAATGG | 0.0802 | -0.025 | 0.213 | 0.609 | -0.0137 | 0.141 | 0.12 | 0.117 | -0.0557 | 0.0303
11 | GACCCGA | 0.013 | 0.0398 | 0.465 | 1.15 | -0.0633 | 0.562 | 0.0944 | 0.0149 | -0.013 | 0.122
12 | TAGATAC | -0.0799 | -0.0946 | -0.0922 | -0.571 | -0.137 | -0.697 | -0.221 | -0.0555 | -0.0885 | -0.13
13 | GCCGAAC | -0.0145 | -0.0246 | 0.0989 | 0.317 | 0.0404 | 0.172 | -0.056 | -0.067 | -0.0659 | 0.00203
14 | TCCGCAC | -0.19 | -0.107 | -0.0283 | -0.401 | -0.106 | -0.599 | -0.0147 | -0.154 | -0.179 | -0.187
15 | CCTGTTT | -0.109 | -0.105 | -0.0201 | -2.03 | -0.113 | -0.476 | -0.551 | -0.0602 | -0.177 | -0.14
16 | ACTTCTC | -0.00498 | -0.0247 | -0.171 | -0.27 | 0.0511 | -0.647 | 0.13 | 0.00334 | -0.0493 | 0.0881
17 | GTCGGAG | -0.0856 | 0.0735 | 0.194 | 0.683 | -0.215 | 1.7 | 0.163 | -0.0697 | -0.0549 | -0.0768
18 | ATTTATG | 0.0119 | -0.0732 | -0.572 | -0.671 | 0.0165 | -1.05 | 0.0456 | 0.0324 | -0.0407 | -0.0154
19 | ACCGTGA | -0.0223 | -0.0824 | -0.395 | -0.295 | -0.011 | -0.96 | 0.0505 | -0.101 | -0.207 | -0.131
20 | AACCAGA | -0.0293 | -0.0415 | -0.149 | -0.685 | 0.058 | -0.889 | -0.0879 | 0.116 | 0.0279 | 0.0684
21 | AGGTCCC | 0.162 | -0.0408 | 0.221 | 0.599 | 0.0546 | 0.786 | 0.0886 | -0.028 | 0.19 | 0.199
22 | AGGTCGG | 0.0655 | 0.0492 | 0.328 | 0.896 | -0.0987 | 1.24 | 0.143 | 0.125 | -0.144 | -0.0281
23 | CGAATGA | 0.153 | 0.0828 | 0.157 | 0.733 | 0.0386 | 1.64 | 0.255 | -0.00966 | 0.058 | 0.179
24 | CCCATAG | 0.141 | 0.226 | -0.755 | 0.0694 | -0.0175 | -0.958 | 0.296 | 0.0262 | 0.128 | 0.0461
25 | ATAGCCC | -0.0213 | 0.112 | 0.0148 | -0.318 | 0.0596 | -0.508 | 0.0319 | 0.13 | -0.00293 | 0.0187
26 | CTTGCTG | -0.0134 | -0.0113 | -0.38 | -0.21 | -0.025 | -0.563 | -0.000741 | -0.192 | -0.143 | -0.214
27 | ATTCTTT | -1.25 | -1.01 | -0.192 | -2.7 | -0.0072 | -0.66 | -2.66 | -0.13 | -0.0379 | -0.0562
28 | CTCGGTA | -0.0154 | -0.198 | 0.0413 | -0.251 | -0.0829 | -0.0861 | 0.013 | -0.0502 | -0.112 | -0.124
29 | GCATGGT | -0.443 | 0.0959 | 0.109 | -0.163 | 0.121 | -0.248 | -0.538 | 0.0266 | 0.0683 | -0.00489
30 | GGAACAC | 0.0573 | 0.0617 | 0.85 | 1.97 | -0.0222 | 2.16 | 0.191 | -0.0636 | 0.0135 | 0.221
